Measured values as given in the supplement of paper PMC4604168 (melanoma cell lines).
The list shows a part of the results. Repeats are few or missing, and single values can be far off.

System: WM1745
Assay: cell count relative to DMSO control; melanoma cells; higher = more viable cells
Conditions: library dose: standard library concentration; 72 h
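Also: cells treated in 1,536-well plates, then fixed and DAPI-stained, with nuclei counted from automated high-throughput microscope images.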

| Structure (SMILES) | cell count |
| --- | --- |
| N.N.[Cl][Pt][Cl] [cisplatin] + CC(C)(C)c1cnc(CSc2cnc(NC(=O)C3CCNCC3)s2)o1 [SNS-032] (first compound 8 µM, partner dose 0.05 µM) | 98.1% |
| N.N.[Cl][Pt][Cl] [cisplatin] + OCCn1cc(-c2cnc3nnn(Cc4ccc5ncccc5c4)c3n2)cn1 [PF04217903] (first compound 8 µM, partner dose 5 µM) | 69.4% |
| Cn1cc(C2=C(c3cn(C4CCN(Cc5ccccn5)CC4)c4ccccc34)C(=O)NC2=O)c2ccccc21 [Enzastaurin] + N.N.[Cl][Pt][Cl] [cisplatin] (first compound 4 µM, partner dose 8 µM) | 87.2% |
| C[C@]12O[C@H](C[C@]1(O)CO)n1c3ccccc3c3c4c(c5c6ccccc6n2c5c31)CNC4=O [Lestaurtinib] + OCCn1cc(-c2cnc3nnn(Cc4ccc5ncccc5c4)c3n2)cn1 [PF04217903] (first compound 0.02 µM, partner dose 5 µM) | 78.9% |
| Cn1cc(C2=C(c3cn(C4CCN(Cc5ccccn5)CC4)c4ccccc34)C(=O)NC2=O)c2ccccc21 [Enzastaurin] + COc1ccc(Cl)c(Nc2nc3ccccc3nc2NS(=O)(=O)c2cccc(NC(=O)C(C)(C)N)c2)c1 [XL147] (first compound 4 µM, partner dose 4 µM) | 56.8% |
| C[As](C)SC[C@H](NC(=O)CC[C@H](N)C(=O)O)C(=O)NCC(=O)O [Darinaparsin] + O=C(O)c1ccc(-c2c[nH]c3ncc(-c4ccccc4)cc23)cc1C1CCCC1 [GSK650394] (first compound 2 µM, partner dose 0.8 µM) | 84.1% |
| C[As](C)SC[C@H](NC(=O)CC[C@H](N)C(=O)O)C(=O)NCC(=O)O [Darinaparsin] + COc1cc2ncnc(Nc3ccc(Oc4ccccc4)cc3)c2cc1OC [SrcI1] (first compound 2 µM, partner dose 10 µM) | 76.9% |
| N.N.[Cl][Pt][Cl] [cisplatin] + C=CCNC1=C2C[C@@H](C)C[C@H](OC)[C@H](O)[C@@H](C)/C=C(\C)[C@H](OC(N)=O)[C@@H](OC)/C=C\C=C(/C)C(=O)NC(=CC1=O)C2=O [Tanespimycin] (first compound 8 µM, partner dose 0.01 µM) | 66.8% |
| C[C@]12O[C@H](C[C@]1(O)CO)n1c3ccccc3c3c4c(c5c6ccccc6n2c5c31)CNC4=O [Lestaurtinib] + Cn1c(Nc2ccc(C(F)(F)F)cc2)nc2cc(Oc3ccnc(-c4ncc(C(F)(F)F)[nH]4)c3)ccc21 [CHIR265] (first compound 0.02 µM, partner dose 0.4 µM) | 68.7% |

System: WM3526
Assay: as above
Conditions: library dose: standard library concentration; 72 h

| Structure (SMILES) | cell count |
| --- | --- |
| C[C@]12O[C@H](C[C@]1(O)CO)n1c3ccccc3c3c4c(c5c6ccccc6n2c5c31)CNC4=O [Lestaurtinib] + O=C(Nc1cccc(Cl)c1)Nc1ncc(CCNc2ncnc3ccsc23)s1 [SNS314] (first compound 0.02 µM, partner dose 0.004 µM) | 63.9% |
| N.N.[Cl][Pt][Cl] [cisplatin] + CO[C@H]1C[C@@H]2CC[C@@H](C)[C@@](O)(O2)C(=O)C(=O)N2CCCC[C@H]2C(=O)O[C@H]([C@H](C)C[C@@H]2CC[C@@H](OCCO)[C@H](OC)C2)CC(=O)[C@H](C)/C=C(\C)[C@@H](O)[C@@H](OC)C(=O)[C@H](C)C[C@H](C)/C=C/C=C/C=C/1C [everolimus] (first compound 8 µM, partner dose 0.1 µM) | 65.7% |
| C[C@]12O[C@H](C[C@]1(O)CO)n1c3ccccc3c3c4c(c5c6ccccc6n2c5c31)CNC4=O [Lestaurtinib] + NC(=O)Nc1cc(-c2cccc(F)c2)sc1C(=O)N[C@H]1CCCNC1 [AZD7762] (first compound 0.02 µM, partner dose 0.1 µM) | 63.4% |
| C[As](C)SC[C@H](NC(=O)CC[C@H](N)C(=O)O)C(=O)NCC(=O)O [Darinaparsin] + Oc1nc(-c2ccc(C(F)(F)F)cc2)nc2c1CSCC2 [XAV939] (first compound 2 µM, partner dose 10 µM) | 75.8% |
| C[As](C)SC[C@H](NC(=O)CC[C@H](N)C(=O)O)C(=O)NCC(=O)O [Darinaparsin] + COc1ccc2c(c1)CCC1C2CCC2(C)C(NCCCCCCN3C(=O)C=CC3=O)CCC12 [U73122] (first compound 2 µM, partner dose 2 µM) | 87% |
| C[C@]12O[C@H](C[C@]1(O)CO)n1c3ccccc3c3c4c(c5c6ccccc6n2c5c31)CNC4=O [Lestaurtinib] + O=C(O)c1ccc(-c2c[nH]c3ncc(-c4ccccc4)cc23)cc1C1CCCC1 [GSK650394] (first compound 0.02 µM, partner dose 0.8 µM) | 71.4% |
| Cn1cc(C2=C(c3cn(C4CCN(Cc5ccccn5)CC4)c4ccccc34)C(=O)NC2=O)c2ccccc21 [Enzastaurin] + C=C(c1ccc(C(=O)O)cc1)c1cc2c(cc1C)C(C)(C)CCC2(C)C [Bexarotene] (first compound 4 µM, partner dose 10 µM) | 71% |
| N.N.[Cl][Pt][Cl] [cisplatin] + CO[C@@H]1[C@H](N(C)C(=O)c2ccccc2)C[C@H]2O[C@]1(C)n1c3ccccc3c3c4c(c5c6ccccc6n2c5c31)C(=O)NC4 [Midostaurin] (first compound 8 µM, partner dose 0.4 µM) | 64.1% |
| Cn1cc(C2=C(c3cn(C4CCN(Cc5ccccn5)CC4)c4ccccc34)C(=O)NC2=O)c2ccccc21 [Enzastaurin] + CNC(=O)c1cc(Oc2ccc(NC(=O)Nc3ccc(Cl)c(C(F)(F)F)c3)cc2)ccn1 [sorafenib] (first compound 4 µM, partner dose 2 µM) | 104% |
| Cn1cc(C2=C(c3cn(C4CCN(Cc5ccccn5)CC4)c4ccccc34)C(=O)NC2=O)c2ccccc21 [Enzastaurin] + CC(C)C[C@H](NC(=O)[C@H](Cc1ccccc1)NC(=O)c1cnccn1)B(O)O [Bortezomib] (first compound 4 µM, partner dose 0.005 µM) | 22.7% |
| Cn1cc(C2=C(c3cn(C4CCN(Cc5ccccn5)CC4)c4ccccc34)C(=O)NC2=O)c2ccccc21 [Enzastaurin] + Cc1cc(Nc2cc(N3CCN(C)CC3)nc(/C=C/c3ccccc3)n2)n[nH]1 [ENMD2076] (first compound 4 µM, partner dose 0.2 µM) | 78.2% |
| C[As](C)SC[C@H](NC(=O)CC[C@H](N)C(=O)O)C(=O)NCC(=O)O [Darinaparsin] + Cn1cc(/C=C2\C(=O)Nc3cccnc32)c2ccccc21 [GW441756] (first compound 2 µM, partner dose 2 µM) | 73% |
| C[As](C)SC[C@H](NC(=O)CC[C@H](N)C(=O)O)C(=O)NCC(=O)O [Darinaparsin] + CC(C)(C)c1cnc(CSc2cnc(NC(=O)C3CCNCC3)s2)o1 [SNS-032] (first compound 2 µM, partner dose 0.05 µM) | 72% |
| N.N.[Cl][Pt][Cl] [cisplatin] + CS(=O)(=O)CCNCc1ccc(-c2ccc3ncnc(Nc4ccc(OCc5cccc(F)c5)c(Cl)c4)c3c2)o1 [lapatinib] (first compound 8 µM, partner dose 4 µM) | 96.4% |
| C[C@]12O[C@H](C[C@]1(O)CO)n1c3ccccc3c3c4c(c5c6ccccc6n2c5c31)CNC4=O [Lestaurtinib] + C[C@]1(c2nc3c(C(N)=O)cccc3[nH]2)CCCN1 [Veliparib] (first compound 0.02 µM, partner dose 7 µM) | 74.8% |
| Cn1cc(C2=C(c3cn(C4CCN(Cc5ccccn5)CC4)c4ccccc34)C(=O)NC2=O)c2ccccc21 [Enzastaurin] + CN1CCN(c2ccc3nc(-c4c(N)c5c(F)cccc5[nH]c4=O)[nH]c3c2)CC1 [Dovitinib] (first compound 4 µM, partner dose 0.5 µM) | 69% |
| Cn1cc(C2=C(c3cn(C4CCN(Cc5ccccn5)CC4)c4ccccc34)C(=O)NC2=O)c2ccccc21 [Enzastaurin] + C[C@@H](Oc1cc(-c2cnn(C3CCNCC3)c2)cnc1N)c1c(Cl)ccc(F)c1Cl [Crizotinib] (first compound 4 µM, partner dose 1 µM) | 70.4% |
| C[As](C)SC[C@H](NC(=O)CC[C@H](N)C(=O)O)C(=O)NCC(=O)O [Darinaparsin] + Cc1cc(SCc2sc(-c3ccc(C(F)(F)F)c(F)c3)nc2C)ccc1OCC(=O)O [GW0742] (first compound 2 µM, partner dose 10 µM) | 83.1% |
| C[C@]12O[C@H](C[C@]1(O)CO)n1c3ccccc3c3c4c(c5c6ccccc6n2c5c31)CNC4=O [Lestaurtinib] + O=C(O)c1ccc2c(c1)nc(Nc1cccc(Cl)c1)c1ccncc12 [CX4945] (first compound 0.02 µM, partner dose 2 µM) | 66.7% |
| N.N.[Cl][Pt][Cl] [cisplatin] + Clc1ccc(Nc2nnc(Cc3ccncc3)c3ccccc23)cc1 [vatalanib] (first compound 8 µM, partner dose 10 µM) | 94% |
| Cn1cc(C2=C(c3cn(C4CCN(Cc5ccccn5)CC4)c4ccccc34)C(=O)NC2=O)c2ccccc21 [Enzastaurin] + COc1cc(Nc2ncc(F)c(Nc3ccc4c(n3)NC(=O)C(C)(C)O4)n2)cc(OC)c1OC [Tamatinib] (first compound 4 µM, partner dose 2 µM) | 77.4% |
